# Data published in PubChem BioAssay AID1963576 (National Center for Advancing Translational Sciences (NCATS), 2024).
# About 60 (0.1%) of roughly 46,000 compounds were called active. Roughly 3% stayed inconclusive and do not appear here. Calls follow the shape of the dose curve; as a rule, active = well fitted inhibition curve with a large enough effect; inconclusive = small, poorly fitted or top-dose-only effect; inactive = no such curve, though single readings can be large or run the other way. The list shows a part of the results.
# Assay: Primary qHTS assay for Inhibitors of ovarian cancer metastasis using an organotypic tumor microenvironment (TME) model. Also: nearly all actives have a fitted effect of over 65% in size.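 As to activity change, negative = inhibition: plate controls were DMSO wells for no effect and tomatine positive control wells for full effect.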
# Settings: SKOV3ip1-GFP adhesion/invasion on 3D omental model, fluorescence; series mostly up to 45.8 µM; activity change, negative = inhibition: at the top concentration
# Method in brief: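 A 3D layer of primary human omental fibroblasts, mesothelial cells, fibronectin and collagen I, grown 48 hr, received SKOV3ip1-GFP cells in serum-free medium plus compounds at 0.36-46 umol/L. After 2 hr RT and 16 hr 37 C, fixed adherent GFP cells were counted; normalized to DMSO and tomatine.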
Structure (SMILES),outcome,"activity change, negative = inhibition"
Cc1cc(=O)n(Cc2ccc(Br)cc2F)c2c1c(C)nn2-c1ccccc1,inactive,
O=C(Nc1cccc(C(F)(F)F)c1)C1CCCN(S(=O)(=O)c2cccc3nonc23)C1 (stereo not drawn),,inactive: -5.54%
Cc1oc2ncn(CC(C)C)c(=O)c2c1C(=O)NCCCN(C)Cc1ccccc1,,inactive: 4.62%
CCn1c(C)c(C)c2cc(C(=O)NCCc3cc(OC)ccc3OC)ccc21,inactive,
CCOC(=O)c1c(SCC(=O)Nc2cccc(C)c2C)nc(=O)[nH]c1C,,inactive: -7.92%
CCOC(=O)Cn1c(=O)oc2cc(S(=O)(=O)Nc3ccccc3F)ccc21,,inactive: -7.23%
COc1cc(C(C)C)c(Oc2cnc(NC(CO)CO)nc2N)cc1I,,inactive: -8.1%
COc1cc(-c2nnc(SCCOc3ccccc3)o2)cc(OC)c1OC,inactive,
Cc1cc2oc(C(=O)Nc3ccc(S(=O)(=O)N(C)c4ccccc4)cc3)cc(=O)c2cc1C,,inactive: 11.3%
Cc1oc2c(C)c3oc(=O)c(CCC(=O)N4CCCCC4)c(C)c3cc2c1C,inactive,
O=C(Cn1cc(S(=O)(=O)Cc2ccccc2Cl)c2ccccc21)Nc1ccc(F)cc1F,,inactive: -4.74%
CC(=O)N1CCc2c(sc(NC(=O)CSc3ccc(F)cc3)c2-c2nc3ccccc3s2)C1,inactive,
COc1ccc(-c2noc(-c3ccc(NCCc4ccccc4)c([N+](=O)[O-])c3)n2)cc1,inactive,
Cc1ccc(Cn2c(CO)cnc2SCC(=O)Nc2cccc(F)c2)cc1,inactive,
O=C(Cn1ncc2c(Cl)cccc21)NCc1cccc(F)c1,,inactive: -17.3%
COC(=O)c1ccc2c(c1)N(Cc1cc(C)ccc1C)C(=O)c1ccccc1S2(=O)=O,,inactive: 57.2%
CCOc1ccc(S(=O)(=O)N2CCC(n3c(C)nc4cccnc43)CC2)cc1,,inactive: 9.19%
CCOc1ccc(CNC(=O)c2ccc3c(c2)N(Cc2ccccc2)CCS3)cc1,,inactive: -8.89%
COc1ccccc1N1CCN(C(=O)COc2ccccc2C#N)CC1,,inactive: 23.7%
CN(C(=O)CSc1nc2ccccc2n1CC(=O)N(C)C1CCCCC1)c1ccc(F)cc1,,inactive: 1.01%
COC(=O)c1cc2sccc2n1Cc1nc(-c2ccc(C)cc2)oc1C,,inactive: -15.1%
CCc1ccccc1NC(=O)c1ccc2c(c1)c(C)c(C)n2Cc1ccccc1,,inactive: 11.9%
Cc1cc(C)c(NC(=O)C2CCCN(C(=O)c3cnn(-c4ccccc4)c3-n3cccc3)C2)c(C)c1 (stereo not drawn),inactive,
CCOC(=O)c1c(C)[nH]c(C)c1S(=O)(=O)N(C)CC(=O)Nc1ccc(C)c(F)c1,,inactive: 69.7%

Structure (SMILES),outcome,"activity change, negative = inhibition"
CC(=O)Nc1ccc2nc(SCCOc3ccccc3Cl)sc2c1,,inactive: 2.55%
CCCCN(c1ccccc1)c1ncnc2c1cnn2-c1cccc(C)c1,,inactive: 3.04%
CCOc1ccc(NC(=O)Cn2c(=O)n(-c3ccccc3)c(=O)c3c4c(sc32)CCCC4)cc1,,inactive: 9.85%
CCc1nnc2c3ccccc3nc(N3CCN(c4cc(Cl)ccc4C)CC3)n12,,inactive: 4.49%
COc1ccc(NC(=O)CCc2c(C)nc3cc(-c4cccc(F)c4)nn3c2C)cc1Cl,inactive,
O=C(COc1ccc(Br)cc1)Nc1ccc(C(=O)OC2CCCCC2)cc1,,inactive: 8.12%
CCc1ccc(S(=O)(=O)c2cn(Cc3ccc(OC)cc3)c3cc(OC)c(OC)cc3c2=O)cc1,,inactive: 8.64%
CC(=O)N1CCCc2cc(S(=O)(=O)N3CCCC(C(=O)Nc4ccc(C)c(F)c4)C3)ccc21 (stereo not drawn),,inactive: -0.919%
Cc1cccc(C(=O)Nc2ccccc2OCc2cc(=O)n3cc(C)ccc3n2)c1,,inactive: 7.31%
COc1cc(OC)c2c(C)c(CC(=O)N3CCCCC3)c(=O)oc2c1,,inactive: 14.5%
Cc1ccc(CN2CCC(CNC(=O)Nc3cccc(C)c3C)C2)cc1 (stereo not drawn),inactive,
CCc1nc2nc(C)cc(Nc3ccc(F)c(Cl)c3)n2n1,,inactive: 27.4%
O=C1CC(c2ccc(Br)cc2)c2c(ccc3ccccc23)N1 (stereo not drawn),,inactive: 6.07%
Cc1c(Cl)cccc1NC(=O)Cn1c(=O)n(Cc2ccco2)c(=O)c2oc3ccccc3c21,,inactive: -0.973%
COC(=O)c1c(Oc2ccc(Br)cc2)nnc(-c2ccccc2)c1-c1ccccc1,,inactive: -1.31%
CC(C)n1c(=O)c2oc3ccccc3c2n(CC(=O)Nc2ccccc2Cl)c1=O,,inactive: 12%
CC(Oc1ccc(O)cc1)(P(=O)(O)O)P(=O)(O)O,,inactive: -6.81%
CCN(CC)CCCNc1oc(-c2ccc(OC)cc2)nc1C#N,,inactive: -0.72%
COc1ccccc1-c1c(C)nn2c(N3CCN(c4ccc(F)cc4)CC3)cc(C)nc12,,inactive: -10.4%
COc1ccc(N2CC(NC(=O)c3cccs3)CC2=O)cc1OC (stereo not drawn),,inactive: -4.29%
O=S(=O)(NCCc1csc(-c2ccc(F)cc2)n1)c1ccc(F)cc1F,inactive,
O=C(Nc1ccc(F)cc1)c1ccc(-n2cnnc2)cc1,,inactive: -17.3%
CC(=O)Nc1ccc(NS(=O)(=O)c2ccc3c(c2)CCCN3C(C)=O)cc1,,inactive: 5.14%
O=C1NC(=O)C(c2ccccc2[N+](=O)[O-])=C1Nc1ccc(O)c(Cl)c1,,inactive: 5.65%
